# Source: PubChem BioAssay AID504333 (National Center for Advancing Translational Sciences (NCATS), 2011)
# Among all 360,000 compounds or so, about 16,000 (4.4%) were called active. This list was built around the results that the source calls inconclusive (neither active nor inactive); the mix of calls is not that of the screen. The call rests on the fitted dose curve; in most records, active means well fitted inhibition curve with a large enough effect; inconclusive means small, poorly fitted or top-dose-only effect; inactive means no such curve, though single readings can be large or run the other way. Potencies beside an inconclusive call are fits to weak or partial responses and may not hold up.
# Biological target: Bromodomain adjacent to zinc finger domain protein 2B (Homo sapiens) (UniProt Q9UIF8)
# Experiment: qHTS Assay for Inhibitors of BAZ2B; further: nearly all actives have a fitted effect of over 60% in size
# Details: AlphaScreen BAZ2B-H3K14Ac peptide displacement; activity change, negative = inhibition: at 114 µM (top of the series)
# Outline: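 Compounds, titrated to a top concentration of 110 uM, were incubated 30 min at room temperature with preformed BAZ2B/acetyl-K14 H3 peptide complex (50 nM each). Proximity signal was measured by AlphaScreen after 20 min with beads.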
# On the % scale 0 is the no-effect control and ±100 the full control effect; potency means the concentration at half of the fitted maximal effect; tags describe the fitted curve by direction and shape.
# UniProt Q9UIF8, sequence (Q9UIF8 whole entry, looked up, the tested form may be a part): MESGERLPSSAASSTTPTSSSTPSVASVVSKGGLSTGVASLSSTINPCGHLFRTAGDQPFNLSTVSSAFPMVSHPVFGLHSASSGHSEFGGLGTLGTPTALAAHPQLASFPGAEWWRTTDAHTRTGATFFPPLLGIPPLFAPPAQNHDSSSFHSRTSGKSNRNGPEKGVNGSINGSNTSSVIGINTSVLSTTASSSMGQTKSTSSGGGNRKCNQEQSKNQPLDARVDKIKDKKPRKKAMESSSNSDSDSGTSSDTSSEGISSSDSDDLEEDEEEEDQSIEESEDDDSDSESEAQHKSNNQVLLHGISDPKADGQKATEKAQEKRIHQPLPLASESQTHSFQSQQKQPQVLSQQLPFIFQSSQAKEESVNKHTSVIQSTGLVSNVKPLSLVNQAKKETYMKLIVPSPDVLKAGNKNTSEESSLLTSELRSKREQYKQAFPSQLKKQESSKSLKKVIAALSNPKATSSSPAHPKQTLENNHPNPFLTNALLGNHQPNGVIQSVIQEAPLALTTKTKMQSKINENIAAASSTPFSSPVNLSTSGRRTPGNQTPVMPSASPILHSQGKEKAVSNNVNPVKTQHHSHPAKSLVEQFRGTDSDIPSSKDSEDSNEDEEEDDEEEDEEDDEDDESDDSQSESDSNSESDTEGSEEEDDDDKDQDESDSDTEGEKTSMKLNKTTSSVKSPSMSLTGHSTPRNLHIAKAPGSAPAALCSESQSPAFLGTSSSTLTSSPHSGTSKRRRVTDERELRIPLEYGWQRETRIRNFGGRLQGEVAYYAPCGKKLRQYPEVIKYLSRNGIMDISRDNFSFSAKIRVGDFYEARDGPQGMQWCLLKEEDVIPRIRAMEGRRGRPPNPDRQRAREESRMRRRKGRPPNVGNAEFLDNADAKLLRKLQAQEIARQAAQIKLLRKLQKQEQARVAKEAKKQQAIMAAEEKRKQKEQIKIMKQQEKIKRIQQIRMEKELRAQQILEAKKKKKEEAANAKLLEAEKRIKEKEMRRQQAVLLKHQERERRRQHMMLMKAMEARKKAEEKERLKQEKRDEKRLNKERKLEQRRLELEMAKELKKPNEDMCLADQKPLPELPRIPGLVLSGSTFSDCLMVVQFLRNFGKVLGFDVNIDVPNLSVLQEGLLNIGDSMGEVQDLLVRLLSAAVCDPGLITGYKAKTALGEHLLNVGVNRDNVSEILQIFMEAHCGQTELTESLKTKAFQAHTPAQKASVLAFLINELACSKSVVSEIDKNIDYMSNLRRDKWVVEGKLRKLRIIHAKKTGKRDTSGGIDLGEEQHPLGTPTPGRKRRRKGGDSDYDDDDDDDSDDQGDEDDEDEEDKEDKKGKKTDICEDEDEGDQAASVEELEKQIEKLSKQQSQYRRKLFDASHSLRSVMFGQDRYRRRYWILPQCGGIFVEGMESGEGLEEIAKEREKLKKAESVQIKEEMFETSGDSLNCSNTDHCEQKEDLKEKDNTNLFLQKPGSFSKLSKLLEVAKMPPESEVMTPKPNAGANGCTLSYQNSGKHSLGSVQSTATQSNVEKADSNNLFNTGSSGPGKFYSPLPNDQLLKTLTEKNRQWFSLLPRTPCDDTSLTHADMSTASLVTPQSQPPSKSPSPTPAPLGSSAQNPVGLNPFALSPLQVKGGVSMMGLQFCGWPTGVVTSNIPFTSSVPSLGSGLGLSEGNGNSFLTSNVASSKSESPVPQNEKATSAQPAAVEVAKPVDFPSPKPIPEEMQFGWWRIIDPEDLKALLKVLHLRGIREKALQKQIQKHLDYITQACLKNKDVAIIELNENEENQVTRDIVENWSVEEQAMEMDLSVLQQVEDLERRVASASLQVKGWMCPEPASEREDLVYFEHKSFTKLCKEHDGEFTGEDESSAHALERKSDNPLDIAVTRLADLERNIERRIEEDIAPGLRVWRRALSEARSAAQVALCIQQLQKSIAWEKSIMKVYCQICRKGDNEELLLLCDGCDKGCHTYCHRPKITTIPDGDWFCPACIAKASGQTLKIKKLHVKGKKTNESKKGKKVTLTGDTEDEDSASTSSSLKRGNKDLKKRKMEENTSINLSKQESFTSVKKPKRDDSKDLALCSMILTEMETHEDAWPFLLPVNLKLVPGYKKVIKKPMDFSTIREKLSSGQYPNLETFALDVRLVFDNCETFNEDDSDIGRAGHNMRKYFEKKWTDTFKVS
Structure (SMILES),Potency,"activity change, negative = inhibition"
O=C(O)CCCC(=O)Nc1ccc(Br)cc1,"inconclusive: 14.1 µM [inhibitor, single point]",
O=c1[nH][nH]c(=S)n1-c1ccccc1C(F)(F)F,"inconclusive: 89.1 µM [inhibitor, single point]",
CCCCn1c(=O)c(-[n+]2ccccc2)c([O-])c2ccccc21,"inconclusive: 39.8 µM [inhibitor, partial curve]",
Cc1ccc(C)c(/C(O)=C2/C(=O)C(=O)N(CCN3CCOCC3)C2c2ccco2)c1 (stereo not given),active: 22.4 µM,
O=C(COC(=O)CCC(=O)c1cccs1)Nc1ccc(Cl)cn1,"inconclusive: 79.4 µM [inhibitor, partial curve]",
COc1ccc(Cl)cc1NC(=O)CCS(=O)(=O)c1cccc2nonc12,,inactive: -18.2%
CCC(C)NC(=O)c1[nH]c(C)c(C(=O)OC)c1C (stereo not given),"inconclusive: 79.4 µM [inhibitor, single point]",
COc1ccc(C(=O)c2ccc(CC#N)s2)cc1,"inconclusive: 89.1 µM [inhibitor, single point]",
CCN(CC(=O)Nc1cc(Cl)ccc1C)C(=O)CSCc1ccc(C)cc1,,inactive: 7.16%
COc1ccc(/C=N/NC(=O)c2cccc(NC(=O)c3ccc(Cl)cc3)c2)c(OC)c1,"inconclusive: 89.1 µM [inhibitor, single point]",
N#C/C(=N\Nc1ccc(F)cc1)C(=N)N1CCCCC1,"inconclusive: 79.4 µM [inhibitor, single point]",
Cc1cccc(N2CCN(C(=O)c3ccc(CS(=O)c4cccc(Cl)c4)o3)CC2)c1C (stereo not given),"inconclusive: 44.7 µM [inhibitor, partial curve]",
CN1/C(=C\C(=O)Nc2ccc(Cl)cc2)C(C)(C)c2ccccc21,,inactive: -31.5%
COCCn1c(C)cc(C(=O)CSc2nc(C)cc(C)c2C#N)c1C,"inconclusive: 50.1 µM [inhibitor, partial curve]",
O=C(CSc1nc2ccccc2o1)NC(=O)NCc1ccccc1,"inconclusive: 89.1 µM [inhibitor, single point]",
CCS(=O)(=O)C1=NN2C(=N)/C(=C\c3ccc(OCCOc4cccc(OC)c4)c(OC)c3)C(=O)N=C2S1,active: 35.5 µM,
Cn1c(Cc2cccc3ccccc23)nnc1SCC(=O)N1CCN(c2ccccc2)CC1,"inconclusive: 89.1 µM [inhibitor, single point]",
CC(=O)Nc1cc2nc(C)n(Cc3ccc([N+](=O)[O-])cc3)c2nc1C,"inconclusive: 89.1 µM [inhibitor, single point]",
Cc1cccc2sc(N(CCCN(C)C)C(=O)c3ccco3)nc12,"inconclusive: 79.4 µM [inhibitor, single point]",
CCOc1cc(C(=S)N2CCOCC2)ccc1OC(=O)/C=C/c1ccc(OC)c(OC)c1,"inconclusive: 89.1 µM [inhibitor, single point]",
COc1ccc(Cl)cc1NC(=O)C1CCN(c2nnc(C)c3c(C)n(-c4ccccc4)nc23)CC1,,inactive: -11.4%
C/C(=N\N1C(=O)CSC1=S)c1ccc(Br)cc1,"inconclusive: 70.8 µM [inhibitor, partial curve]",
CC(=O)c1cc(-c2ccccc2)n(CC(=O)NC(C)(C)C)c1C,active: 50.1 µM,
Oc1ccc2[nH]cnc2c1CN1CCCCC1,,inactive: 11.4%

Structure (SMILES),Potency,"activity change, negative = inhibition"
Cc1ccc(NC(=O)COC(=O)COc2ccc(Cl)cc2)c([N+](=O)[O-])c1,"inconclusive: 20 µM [inhibitor, full curve]",
CCOC(=O)C1=C(N)N2C(=O)CSC2=C(C(=O)OC)C1,"inconclusive: 89.1 µM [inhibitor, single point]",
C[N+]1(CC(=O)NNc2c3ccccc3nc3ccccc23)CCOCC1,"inconclusive: 89.1 µM [inhibitor, partial curve]",
CC1=Nc2ccccc2/C1=C\c1sc(Nc2ccc(C)cc2)nc1O,"inconclusive: 70.8 µM [inhibitor, single point]",
Cc1cccc(NC(=O)c2ccc(N3C(=O)C4CCCCC4C3=O)cc2)c1C (stereo not given),,inactive: -18.1%
Cc1nc(-c2ccc(Cl)cc2)sc1C1(C)CC(c2ccc([N+](=O)[O-])cc2)=NO1 (stereo not given),"inconclusive: 79.4 µM [inhibitor, partial curve]",
COc1ccc(/C=N/Nc2ccccn2)c(OC)c1OC,"inconclusive: 56.2 µM [inhibitor, partial curve]",
CCOC(=O)c1ccc(Nc2c(OCC)c(=O)c2=O)cc1,,inactive: -38.7%
O=C(O)c1ccc(Br)cn1,active: 22.4 µM,
CCn1c2ccccc2c2cc(NC(=O)Nc3ccc([N+](=O)[O-])cc3C)ccc21,"inconclusive: 89.1 µM [inhibitor, single point]",
COc1cc2cc(CN(CCc3cccc(C)c3)C(=S)NCCCN(C)C)c(=O)[nH]c2cc1OC,,inactive: -9.22%
COc1ccccc1-c1nc2c(c(SCC(=O)N3CCCCC3)n1)Cc1c(CO)cnc(C)c1O2,"inconclusive: 79.4 µM [inhibitor, single point]",
CCc1cc(CNC(=O)c2ccc(OC3CCN(CCc4ccccc4)CC3)cc2)on1,"inconclusive: 25.1 µM [inhibitor, single point]",
Cc1cc(C)c(NS(=O)(=O)c2ccc(-c3cnc(C4CC4)o3)cc2)c(C)c1,"inconclusive: 31.6 µM [inhibitor, full curve]",
O=[N+]([O-])c1cc(Cl)ccc1N1CCN(c2ccccc2O)CC1,active: 14.1 µM,
COc1ccccc1C(=O)Nc1ncc2c(n1)CC(c1ccco1)CC2=O (stereo not given),active: 50.1 µM,
N#CC(C#N)=c1ccc2c(c1)N1C(c3ccccc3)=CC(c3ccccc3)C3CCCCC31N=2 (stereo not given),"inconclusive: 0.708 µM [inhibitor, full curve, poor fit]",
CCN1CCN(C2=C(NS(=O)(=O)c3ccc(NC(C)=O)cc3)C(=O)c3ccccc3C2=O)CC1,"inconclusive: 50.1 µM [inhibitor, partial curve]",
Cc1ccc(-n2c(SCC(=O)Nc3ccc(C(=O)O)cc3)nnc2-c2ccncc2)cc1,"inconclusive: 89.1 µM [inhibitor, single point]",
O=C(Cc1ccc(Cl)cc1)Nc1nnc2n1CCS2,active: 56.2 µM,
CC(C)(C)OC(=O)N1CCN(c2ccc([N+](=O)[O-])cc2)CC1,"inconclusive: 79.4 µM [inhibitor, partial curve]",
CCN(CC)CCCN(Cc1cc2cc3c(cc2[nH]c1=O)OCCO3)C(=O)Nc1ccc(F)cc1,,inactive: -36.3%
O=C1NC(=S)N/C1=C/c1cccc([N+](=O)[O-])c1O,"inconclusive: 89.1 µM [inhibitor, single point]",
O=C(NCc1cccnc1)Nc1ccc(Br)cc1,,inactive: -14.4%

Structure (SMILES),Potency,"activity change, negative = inhibition"
O=C(COC(=O)c1ccc(Cl)nc1)Nc1nnc(-c2ccccc2)o1,active: 50.1 µM,
COc1ccc(C(=O)Nc2ccnn2C2CCN(Cc3ccc4nonc4c3)CC2)cc1,"inconclusive: 50.1 µM [inhibitor, partial curve]",
COc1ccc(-c2nnc3n2-c2ccccc2SC3)cc1OC,"inconclusive: 89.1 µM [inhibitor, single point]",
CCc1ccc(-c2cc(C(=O)NCc3ccco3)c3ccccc3n2)s1,"inconclusive: 89.1 µM [inhibitor, single point]",
COC(=O)C1=C(C)NC(C)=C(C(=O)OC)C1C(=O)OCc1nnc(-c2ccccc2Cl)o1,"inconclusive: 89.1 µM [inhibitor, single point]",
O=C(O)CCCNc1cc(N2CCN(C3CCCCC3)CC2)c2noc3c2c1C(=O)c1ccccc1-3,active: 31.6 µM,
CCOc1ccc(OCC)c(NC(=O)CC(C)n2nc(C)cc2C)c1 (stereo not given),,inactive: -15%
CCCNC(=O)NC(=O)CSc1nc2cc(C(=O)OC)ccc2c(=O)n1-c1ccccc1,"inconclusive: 89.1 µM [inhibitor, single point]",
NNC(=O)c1cncn1-c1ccc(F)cc1,active: 50.1 µM,
O=C(c1ccco1)N1CCN(c2c([N+](=O)[O-])nn(-c3cccc(Cl)c3)[n+]2[O-])CC1,"inconclusive: 56.2 µM [inhibitor, partial curve, poor fit]",
COc1ccc(S(=O)(=O)N2CCCC(C(=O)NCC3CCCO3)C2)cc1OC (stereo not given),,inactive: 6.39%
O=C(NC(=S)N1CCN(c2ccc(Cl)cc2[N+](=O)[O-])CC1)c1cccs1,"inconclusive: 10 µM [inhibitor, full curve]",
CCOC(=O)c1c(NC(=O)CSc2nnc(-c3ccncc3)n2Cc2ccco2)sc(C)c1C,"inconclusive: 79.4 µM [inhibitor, single point]",
Cc1cc2ccccc2n1CCNC(=O)c1ccccc1,"inconclusive: 56.2 µM [inhibitor, partial curve, poor fit]",
O=C(CCc1nnc2ccc(NCc3ccco3)nn12)Nc1ccccc1F,"inconclusive: 50.1 µM [inhibitor, partial curve]",
CCN(CCn1cccn1)Cc1cn[nH]c1-c1cccc2ccccc12,,inactive: -7.58%
CC(C)N1C(=O)C(O)(c2c[nH]c3ccccc23)c2ccccc21 (stereo not given),"inconclusive: 89.1 µM [inhibitor, single point]",
Cc1cc(C(=O)COC(=O)c2ccc(Br)o2)c(C)n1Cc1ccco1,"inconclusive: 50.1 µM [inhibitor, partial curve]",
Cc1noc(C)c1COC(=O)/C=C/c1ccc(Cl)cc1,,inactive: 68.3%
CCC(C(=O)Nc1nc(C)c(C)s1)c1ccccc1 (stereo not given),active: 50.1 µM,
Clc1ccc(C(CCN2CCCC2)Cc2ccccc2)cc1 (stereo not given),active: 50.1 µM,
CC(=O)Nc1cc(C(=O)CSc2nnc(C3CC3)n2C2CC2)ccc1O,"inconclusive: 79.4 µM [inhibitor, single point]",
